Values joined by “and” are separate entries in the source; they are usually repeats but may differ in a detail not shown here. Equal entries are not always repeated.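 Assay format: 96-well plates, 48-hour exposure. The concentration for 50% growth inhibition is given as GI50. TGI: total growth inhibition.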 Some results are limits rather than exact numbers.

The assay concerns NCI-H322M lung. The assay is described as follows: growth of human tumour cells (NCI), 48 h.
Consider `O=S(=O)(c1ccc2c(c1)C(=NO)c1cc(S(=O)(=O)N3CCCCC3)ccc1-2)N1CCCCC1`, for which the GI50 was 0.167 µM and the TGI is 0.304 µM.

On to `CCCCC(SC(=S)N(CC)CC)C(=O)Nc1nc(CC(=O)OCC)cs1` (stereo not given), for which the GI50 is > 100 µM and the TGI was > 100 µM.

Turning to `O=C1OC(C2Cc3cc4c(cc3C2=O)CCC4)c2ccccc21` (stereo not given), the TGI was > 100 µM.

Regarding `COc1cc(/C=C2/C[C@H]3[C@@H]4CCC5=CC(=O)CC[C@]5(C)[C@H]4CC[C@]3(C)NC2=O)cc(OC)c1OC`, the TGI was > 100 µM.

Take `CN(C)c1ccc(/C=C2\C[C@H]3[C@@H]4CCC5=CC(=O)CC[C@]5(C)[C@H]4CC[C@]3(C)C2=O)cc1`: the TGI is > 100 µM.

On to `O=C(N/N=C\c1ccc([N+](=O)[O-])cc1)Nc1ccccc1`, for which the TGI was > 100 µM.

The compound `C/C=C1/CN2CCC34C5=CC(=O)C(c6cc7c(cc6OC)N(C)C6=C(C(=O)OC)CC8(CC)CCCN9CCC67C98)=CC5=NC23CCC1C4C(=O)OC` (stereo not given) had a TGI of 31.8 µM.

In the case of `C=C1C(=O)O[C@H]2[C@H]1CC/C(COC(=O)NCc1c[nH]c3ccc(OC)cc13)=C\CC[C@@]1(C)O[C@@H]21`, the GI50 is 11.1 µM and the TGI turned out to be 23.2 µM.

For the compound `NC(N)=NS(=O)(=O)c1ccc(Nc2c3ccccc3nc3ccc(C(=O)Nc4ccc(S(N)(=O)=O)cc4)cc23)cc1`, the TGI was > 100 µM.

Turning to `Nc1nc(N)nc(-c2cnc3ccccc3c2)n1`, the TGI is > 100 µM.

Regarding `Nc1sccc1S(=O)(=O)c1ccsc1N`, the TGI is > 100 µM.

As for `CCN(CC)CCC(CNc1c2ccc([N+](=O)[O-])cc2nc2cc(OC)c(OC)cc12)c1ccccc1` (stereo not given), the GI50 is 0.13 µM and 0.113 µM; the TGI was 0.607 µM and 0.648 µM.

For `O=C(O[C@H]1CN[C@H](C#Cc2cc3ncnc(Nc4ccc(Cc5ccccc5)cc4)c3s2)C1)N1CCOCC1`, the GI50 is 3.85 µM and the TGI was > 25 µM.

As to `Cc1cc2c(cc1C)C(=O)c1ncccc1C2=O`, the TGI was > 100 µM.

`Cc1oncc1C(=O)Nc1ccc(C(F)(F)F)cc1`: the GI50 was 32.7 µM and the TGI is > 100 µM.

`COc1ccc(-c2cn3c(nc4ccccc43)c(C)n2)cc1`: the TGI was > 100 µM.

For the compound `Cc1cc(O)c2c(c1O)C(=O)c1c(O)ccc(O)c1C2=O`, the TGI is > 100 µM.

In the case of `Clc1ccc(NCc2nnc(COc3ccc(OCc4nnc(CNc5ccc(Cl)cc5)o4)c(Cl)c3)o2)cc1`, the TGI is > 100 µM.

`O=P(O)(O)OP(=O)(O)O`: the TGI is > 100 µM.

Take `O=C(c1ccsc1)c1cc2c(s1)C(=O)c1ccsc1C2=O`: the TGI stood at 0.979 µM.

The compound `CCOC(=O)c1c(NS(=O)(=O)c2ccc(Br)cc2)sc2c1CCCC2` came in with a TGI of 30.2 µM.

Turning to `NC(Cc1cc(Br)c(O)c(Br)c1)C(=O)O` (stereo not given), the TGI is > 100 µM.

For `Cc1c(NC(=O)CCCl)c(=O)oc2c(C)c3occc(=O)c3cc12`, the TGI was > 100 µM.

Take `OCC1OC(n2ccc3cnccc32)CC1O` (stereo not given): the TGI is > 100 µM.

As to `COc1ccccc1/C=C1\CCC(CN(C)C)C1=O` (stereo not given), the TGI was determined as 31.4 µM.

In the case of `CCN(CC)C(=O)C1=C(C)NC(C)=C(C(=O)N(CC)CC)C1`, the TGI is > 100 µM.

As for `COC(=O)C(CCC1(C)OCCO1)C(C)=O` (stereo not given), the TGI was > 100 µM.

For `C[C@@]12CCC[C@@](C)(C(=O)O)C1CC[C@]13C=C(CO)[C@](O)(CCC12)C3` (stereo not given in full), the GI50 was > 100 µM and the TGI is > 100 µM.

Regarding `CCOC(=O)C(=CNC(Cc1c[nH]c2ccccc12)C(=O)OC)C(=O)OCC` (stereo not given), the TGI was > 100 µM.

`C/C(=N/NC(=S)N1CCCCCC1)c1ccccc1O`: the TGI was > 100 µM.

On to `Cn1c(=O)c2c(ncn2CCCCn2ccnc2[N+](=O)[O-])n(C)c1=O`, for which the TGI is > 100 µM.

As to `Nc1cc(OCc2ccccc2)c(OCc2ccccc2)cc1C=O`, the TGI is > 100 µM.

Turning to `CCCCCCCCCCCCCCCCCC(=O)[O][Sn]([CH2]CCC)([CH2]CCC)[CH2]CCC`, the GI50 is 0.18 µM and the TGI stood at 0.367 µM.

Take `CCN(CC)CCC(=O)c1ccc(Oc2ccc(C)cc2)cc1`: the TGI is > 100 µM.

As for `O=S1(=O)COc2ccccc2-c2ncncc21`, the TGI was > 100 µM.

For the compound `O=c1oc2c(Br)c(O)c(Br)cc2c2ccccc12`, the TGI is 85.5 µM.

As for `C=CCOC1=C2CC[C@H](O)[C@@]2(C)CCC1=O`, the TGI is > 100 µM.

Regarding `O=[N+]([O-])c1ccc(Oc2cccnc2)c([N+](=O)[O-])c1`, the GI50 was 18.2 µM and the TGI was determined as 55 µM.

`C[CH2][Sn]1([CH2]C)[O]C2C(O)OC(CO)C(O)C2[O]1` (stereo not given): the GI50 is > 100 µM and the TGI is > 100 µM.

As to `Cc1cc(N2CCOCC2)nc(N(CCNc2ccnc3cc(Cl)ccc23)Cc2ccco2)n1`, the GI50 was 3.31 µM and the TGI turned out to be 14.4 µM.

For `CC(C)CC(=O)N1CCN(C(=O)CC(C)C)c2ccccc21`, the TGI is > 100 µM.

As to `O=C(CC(=O)C(=O)CC(=O)OCc1ccccc1)OCc1ccccc1`, the TGI is > 100 µM.

As for `CC(C)[C@@H]1NC(=O)[C@]2(C)CSC(=N2)c2csc(n2)CNC(=O)C[C@@H](/C=C/CCS)OC1=O`, the GI50 was 0.0492 µM and the TGI was found to be 2.13 µM.

`O=C1C(CN(Cc2ccccc2)Cc2ccccc2)CCCC1CN(Cc1ccccc1)Cc1ccccc1` (stereo not given): the TGI was > 100 µM.

As for `CC(C)=C1C(=O)C[C@]2(C)C/C=C(\C)CC/C=C(\C)CC[C@@H]12`, the TGI is > 50 µM.

In the case of `CC1C(=O)CCC1C(Sc1ccccc1)(Sc1ccccc1)Sc1ccccc1` (stereo not given), the TGI was > 100 µM.

As to `C/C(=C\CNc1ncnc2nc(Cl)[nH]c12)CO`, the TGI was > 100 µM.

Turning to `CC(=O)Oc1ccn2nc(C)c(Cc3c(C)nn4ccc(OC(C)=O)cc34)c2c1`, the TGI is > 100 µM.

On to `CCC(C)[C@H]1C(=O)N=C(N)N1C(=O)OCc1ccccc1` (stereo not given in full), for which the TGI was > 100 µM.

`COc1cc(O)c2c(=O)c3ccccc3n(C)c2c1`: the TGI is > 100 µM.

Consider `CCN(CC)CC(O)CNc1ccc(NCC(O)CCl)c2c1C(=O)c1ccccc1C2=O` (stereo not given), for which the TGI was 20.9 µM.

For `Brc1ccc(-c2ccc(-c3ccc(-c4ccc(Br)s4)s3)s2)s1`, the TGI was > 100 µM.

Turning to `OCC1C(O)C(O)[C@@H]2SCCN12` (stereo not given in full), the TGI is > 100 µM.

The compound `COC(=O)C1=C(O)C(C(=O)OC)[C@]2(O)[C@H](C(=O)OC)[C@H]1C[C@@H](c1ccccc1OC)[C@H]2C(=O)OC` (stereo not given in full) had a TGI of 24.1 µM.

For the compound `C/C=C/C=C/C1=NN(c2cccc(S(=O)(=O)O)c2)C2(C1)C(Cl)C(=O)N2c1nc2ccccc2s1` (stereo not given), the TGI was 39.8 µM.

For the compound `CCOC(=O)c1ccc(-c2cccs2)n1C`, the TGI was > 100 µM.

As for `O=C1C(=O)c2ccccc2C=C1[N+](=O)[O-]`, the TGI was > 100 µM.

For `CCc1ccc(/C(C#N)=C/C=C/c2ccccc2)cc1`, the GI50 was 27.6 µM and the TGI is > 100 µM.

For `O=C(O)C(F)(OC(F)(F)C(F)(F)C(F)(F)F)C(F)(F)F` (stereo not given), the TGI is > 100 µM.

`CC(C)(C)C1CCC2c3c([nH]c4ccccc34)C3C(=O)N(c4cccc(Cl)c4)C(=O)C3C2C1` (stereo not given) registered a TGI of 64.2 µM.

In the case of `COc1ccc(Cc2nc3cc(Cl)ccc3o2)cc1`, the TGI is > 100 µM.

In the case of `CCOc1ccc(/C=N/Nc2cc(C)nc3ccc(Cl)cc23)cc1`, the GI50 was 1.83 µM and the TGI was determined as 3.3 µM.

Take `COc1ccc(Nc2nc(NCc3ccccc3)c3ccccc3n2)cc1`: the GI50 is 12.4 µM and the TGI is 25.1 µM.

With `Fc1cc(C2=C[C@H](c3ccc4c(c3)OCO4)NC(=S)N2)c(Cl)cc1Cl`, the TGI is > 100 µM.

With `COC(=O)C1C2CC3C(OC(=O)C31)C2I` (stereo not given), the TGI is > 100 µM.

Consider `COC(=O)c1c2c(c[n+]([O-])c1C)C(=O)C(NCc1ccccc1)=CC2=O`, for which the GI50 is 0.577 µM and the TGI is 1.59 µM.

`N#CC(NC12CC3CC(CC(C3)C1)C2)c1ccccc1` (stereo not given): the TGI was > 100 µM.

`NCCCCN`: the TGI is > 100 µM.

For the compound `CCOC(=O)N/N=C/C1=NN(C(=O)OCC)S(=O)C1C` (stereo not given), the TGI was > 100 µM.

On to `O=C(c1ccc(F)c(F)c1Nc1ccc(I)cc1F)N1CC(O)([C@H]2CCCCN2)C1`, for which the GI50 is 0.764 µM and the TGI is 14.1 µM.

In the case of `Nc1ccc(S(=O)(=O)Nc2nc3ccccc3nc2Nc2ccc(S(N)(=O)=O)cc2)cc1`, the TGI is > 100 µM.

As for `CC(C)(C)OC(=O)N1C[C@H](CC(=O)OCc2ccccc2)C[C@H]1C(=O)OCC(Cl)(Cl)Cl`, the TGI is > 50 µM.

For the compound `CCN(CC)/[N+]([O-])=N/OC`, the TGI is > 100 µM.

As to `C[C@]1(O)CC(=O)c2c(c(-c3ccc4cc5c(c(O)c4c3O)C(=O)C[C@@](C)(O)C5)c3cccc(O)c3c2O)C1`, the TGI came out at 26.6 µM.

For the compound `C[C@H](Nc1ccc(C#N)n(C)c1=O)c1cc2cc(Cl)ccc2[nH]c1=O`, the GI50 is 38.4 µM and the TGI was > 100 µM.

`COc1cccc(/C=N/[N-]C(N)=O)c1[O-].[Cu+2].[OH3+].c1cnc2c(c1)ccc1cccnc12` gave a TGI of 35.4 µM.

For `CCC[CH2][Sn]([CH2]CCC)([O]C(=O)c1cc(OC)c(OC)c(OC)c1)[O]C(=O)c1cc(OC)c(OC)c(OC)c1`, the GI50 is 1.45 µM and the TGI was 2.85 µM.

Turning to `COc1ccc(S(=O)(=O)Nc2cc(/C=C\c3cc(OC)c(OC)c(OC)c3)cc(OC)c2OC)cc1OC`, the GI50 is 4.71 µM and the TGI was > 100 µM.

Regarding `COC(=O)C1C(=O)O[C@@H](c2ccc(OC)cc2)C1C(=O)OC` (stereo not given in full), the TGI was > 100 µM.

Take `CCNC(=O)Nc1ccc(-c2nc3c(c(N4CCOC[C@@H]4C)n2)CCN(C2COC2)C3)cc1`: the GI50 is 0.481 µM and 0.311 µM; the TGI was > 100 µM.

As for `C/C(Sc1ccccc1)=C1/CCCN(Cc2ccccc2)C1`, the TGI was > 100 µM.

Consider `Nc1ccn(C2OC(CO[P+](=O)OC3C(CO[P+](=O)OC4C(CO[P+](=O)OC5C(CO[P+](=O)OC6C(CO[P+](=O)OC7C(CO[P+](=O)OC8C(CO[P+](=O)OC9C(CO[P+](=O)OC%10C(CO[P+](=O)OC%11C(CO)OC(n%12ccc(N)nc%12=O)C%11(F)F)OC(n%11ccc(N)nc%11=O)C%10(F)F)OC(n%10ccc(N)nc%10=O)C9(F)F)OC(n9ccc(N)nc9=O)C8(F)F)OC(n8ccc(N)nc8=O)C7(F)F)OC(n7ccc(N)nc7=O)C6(F)F)OC(n6ccc(N)nc6=O)C5(F)F)OC(n5ccc(N)nc5=O)C4(F)F)OC(n4ccc(N)nc4=O)C3(F)F)C(O)C2(F)F)c(=O)n1` (stereo not given), for which the GI50 was 16 µM and the TGI is > 100 µM.

For `CSc1nc(C)cc(N(C)c2ccccc2)n1`, the TGI was > 100 µM.
